From the RNAGym collection of RNA variant scans (doi:10.1093/nar/gkz1192)
The source gives no read counts; variants with many changes may rest on few reads.

B1: CPEB3 Ribozyme (parent)
chain: UAACAGGGGGCCACAGCAGAAGCGUUCACGUCGCAGCCCCUGUCAGAUUCUGGUGAAUCUGCGAAUUCUGCUGUAUAUCUC

Variants of: B1
Assay: self-cleavage, relative activity (ratio to wild type); higher = more cleavage; in vitro, sequencing
How it was run: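 Libraries of CPEB3 self-cleaving ribozyme mutants came from rounds of error-prone PCR and carried barcodes, which DNA sequencing matched to variants. In vitro transcription used T7 RNA polymerase at 37°C for 5 hours, with a further 15 min in DNase I before EDTA stopped the reaction; the ribozymes cleaved during both steps. The RNA was reverse transcribed with template switching and sequenced on Illumina. Relative activity is the cleaved/total read fraction of a variant divided by that of the unmutated ribozyme, averaged over three batches with at least 5 reads.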

Row | Variant | self-cleavage
1 | C11G A18U U49C | 0.04
2 | C11G A20G C34U A47G U48C U51C G53A | 0.04
3 | C11G A20G U41C G53A U67A | 0.18
4 | C11G A20G U54A A77G | 0.08
5 | C11G A21G A28G U54C | 0.33
6 | C11G A21G G46A G63A U67C | 0.03
7 | C11G A21G U25C U49C | 0.21
8 | C11G A21G U49C A56G | 0.11
9 | C11G A28C A45U | 0.09
10 | C11G A28C A47G | 0.1
11 | C11G A28G A35U U66C | 0.04
12 | C11G A28G C37G A45U | 0.28
13 | C11G A35G A45G U74A | 0.33
14 | C11G A35G U41A U78A | 0.05
15 | C11G A35U U43C | 0.1
16 | C11G A45U A56G U58C A64U | 0.04
17 | C11G A47G U69C U80C | 0.22
18 | C11G A57G A77G | 0.18
19 | C11G A65U U72C | 0.44
20 | C11G C12U A21G U41G U43C C71A | 0.03
21 | C11G C14A U25A G30A C34G U43C U51A | 0.05

Row | Variant | self-cleavage
22 | C11G C17U C39G U66C | 0.06
23 | C11G C23G U25C | 0.08
24 | C11G C27U U41A U60C U67A | 0.28
25 | C11G C32A A45G A57G U67C U80C | 0.1
26 | C11G C32U A64C | 0.07
27 | C11G C37A A65G U76C | 0.05
28 | C11G C59A A64U A65G | 0.02
29 | C11G G19A A64U U72A | 0.04
30 | C11G G30U A65G U72A | 0.1
31 | C11G G36C U41A A77G | 0.05
32 | C11G G53A A57G | 0.53
33 | C11G U25A C37A C38A | 0.32
34 | C11G U25A U31C G42A U51C | 0.37
35 | C11G U25C A56U A65G U72A | 0.11
36 | C11G U25C A64U | 0.28
37 | C11G U25C C27G U67C | 0.15
38 | C11G U25C C29U A57G U78C | 0.07
39 | C11G U25C C32A A45G U80C | 0.35
40 | C11G U25C U31C A35U A45G U51C | 0.04
41 | C11G U25C U41C U67A U74G | 0.11
42 | C11G U25C U54C U72C U74C | 0.06

Row | Variant | self-cleavage
43 | C11G U25C U66G | 0.09
44 | C11G U26C A35G A47G U51C | 1.07
45 | C11G U26C A45G U72C | 0.07
46 | C11G U41A A45G A64U | 0.33
47 | C11G U41A A64G U66C U80C | 0.04
48 | C11G U41A C62U | 0.07
49 | C11G U41C A56G A57G | 0.08
50 | C11G U41C A56G U74C | 0.89
51 | C11G U41C G53C U54C A57G | 0.39
52 | C11G U41C U72A U74G U80C | 1.2
53 | C11G U48C U51G U54C U67C A75U U76C | 0.08
54 | C11G U49A U80C | 0.41
55 | C11G U51C U54A U69C | 0.34
56 | C11G U58A A75G | 0.23
57 | C11G U60C U69C | 0.08
58 | C11G U67C G73A | 0.02
59 | C11U A13C A15G U26A C44A A65G U80A | 0.02
60 | C11U A13G A20G | 0.47
61 | C11U A13G U25C U43C G46U | 0.3
62 | C11U A13G U41C U60A | 0.26
63 | C11U A13U A28U U67A C71A | 0.04

Row | Variant | self-cleavage
64 | C11U A13U G24A U26C U31C C39U A64G | 0.04
65 | C11U A13U U54C | 0.28
66 | C11U A15C U54C U72C | 0.16
67 | C11U A15G A20U A57U U60A A75G | 0.04
68 | C11U A15G A47U U67C U72C | 0.56
69 | C11U A15G A75G | 0.35
70 | C11U A15G C39A A57G | 0.28
71 | C11U A15G C39U U76A U80A | 0.12
72 | C11U A15G G16C A57G A65C U80C | 0.04
73 | C11U A15G G30U C37U U41C U48C U66C | 0.22
74 | C11U A15G U31A U76A A77G | 0.1
75 | C11U A15G U51C | 0.24
76 | C11U A15G U60C U74C | 0.08
77 | C11U A15U A28G C38A A56G A57G A65G | 0.11
78 | C11U A15U U43C A64G | 0.15
79 | C11U A18G A57G | 0.3
80 | C11U A18G C44U A47G | 0.27
81 | C11U A18G U31C | 0.25
82 | C11U A18U C40A | 0.21
83 | C11U A18U U72C | 0.18
84 | C11U A20G A35G A45G G46U | 0.04
